{
  "source": "patent US8501961B2",
  "about": "“HIV protease inhibitors and methods for using” (priority 2008, dated 2013)",
  "key": {"HIV-1 protease": {"target": "HIV-1 protease (Human immunodeficiency virus type 1 group M subtype B (isolate HXB2) (HIV-1), UniProt P04585)", "experiment": "HIV-1 protease enzyme inhibitory assay (protocol of Toth and Marshall)", "format": "biochemical", "conditions": "Table 3; means of at least two experiments"}, "HIV-1-LAI": {"system": "HIV-1-LAI", "experiment": "Antiviral assay in MT-2 cells, inhibition of HIV-1-elicited cytopathic effect", "format": "cell-based"}, "[1]": {"system": "HIV-1ERS104pre (wild-type clinical X4 isolate)", "experiment": "Antiviral assay in PHA-PBMC, inhibition of p24Gag production", "format": "cell-based", "conditions": "read-out: IC50 (nM) values"}, "HIV-1 MDR/TM": {"system": "HIV-1 MDR/TM", "experiment": "microbe, parasite or virus in culture", "format": "cell-based", "conditions": "PBMC, MDR/TM"}, "HIV-1 MDR/MM (R5)": {"system": "HIV-1 MDR/MM (R5)", "experiment": "microbe, parasite or virus in culture", "format": "cell-based", "conditions": "for IC50: read-out: IC50 (nM) values"}, "HIV-1 MDR/JSL (R5)": {"system": "HIV-1 MDR/JSL (R5)", "experiment": "microbe, parasite or virus in culture", "format": "cell-based", "conditions": "for IC50: read-out: IC50 (nM) values"}, "HIV-1 MDR/B": {"system": "HIV-1 MDR/B", "experiment": "microbe, parasite or virus in culture", "format": "cell-based", "conditions": "PBMC, MDR/B"}, "HIV-1 MDR/C (X4)": {"system": "HIV-1 MDR/C (X4)", "experiment": "microbe, parasite or virus in culture", "format": "cell-based", "conditions": "for IC50: read-out: IC50 (nM) values"}, "HIV-1 MDR/G (X4)": {"system": "HIV-1 MDR/G (X4)", "experiment": "microbe, parasite or virus in culture", "format": "cell-based", "conditions": "for IC50: read-out: IC50 (nM) values"}, "HIV-1 MDR/A (X4)": {"system": "HIV-1 MDR/A (X4)", "experiment": "microbe, parasite or virus in culture", "format": "cell-based", "conditions": "for IC50: read-out: IC50 (nM) values"}, "[2]": {"system": "multi-drug-resistant clinical HIV-1 isolates", "experiment": "Antiviral assay in PBMCs, multi-drug-resistant clinical isolates stated collectively", "format": "cell-based", "conditions": "most of / all multi-drug-resistant clinical isolates examined, read-out: IC50 values against the multi-drug-resistant clinical isolates examined"}, "[3]": {"conditions": "Human immunodeficiency virus 1, T-lymphoid, MT-2 human T-lymphoid cells exposed to HIV-1LAI"}, "[4]": {"conditions": "p24Gag production, read-out: IC50 (nM) values"}, "[5]": {"conditions": "Human immunodeficiency virus 1, PBMC"}},
  "note": "Several values for one entry are separate records, joined by “and”; a condition that tells them apart may be missing. Equal values may be shown once. Read-outs that look alike come from different tables or passages of the source.",
  "data": [
    {"smiles": "CC(C)CN(C[C@@H](O)[C@H](Cc1ccccc1)NC(=O)OC1CC2OCO[C@@H]2C1)S(=O)(=O)c1ccc(CO)cc1", "note": "(stereo partly drawn) [Inhibitor 130, (1′S,2′R)-{1′-Benzyl-2′-hydroxy-3′-[isobutyl(4-(hydroxymethyl)benzenesulfonyl)amino]propyl} carbamic acid (1β,2β,4β)-1,2-(methylenedioxy)cyclopent-4-yl ester]", "values": [
      {"measurement": "Ki", "setting": "HIV-1 protease", "result": "0.00034 ± 7e-05", "unit": "µM"},
      {"measurement": "IC50", "setting": "HIV-1-LAI; [3]", "result": "0.0077 ± 0.003", "unit": "µM"}
    ]},
    {"smiles": "CC(C)c1nc(CN(C)C(=O)N[C@H](C(=O)N[C@@H](Cc2ccccc2)C[C@H](O)[C@H](Cc2ccccc2)NC(=O)OCc2cncs2)C(C)C)cs1", "note": "[RTV]", "values": [
      {"measurement": "IC50", "setting": "[1]; PBMC, HIV-1 ERS104pre (wild-type, X4), p24Gag production", "result": 34, "unit": "nM"},
      {"measurement": "value in parentheses (fold change of IC50 vs wild-type ERS104pre)", "setting": "HIV-1 MDR/TM", "result": "> 29"},
      {"measurement": "IC50", "setting": "HIV-1 MDR/TM; [4]", "result": "> 1000", "unit": "nM"},
      {"measurement": "value in parentheses (fold change of IC50 vs wild-type ERS104pre)", "setting": "HIV-1 MDR/MM (R5); PBMC, MDR/MM (R5)", "result": "> 29"},
      {"measurement": "IC50", "setting": "HIV-1 MDR/MM (R5); PBMC, MDR/MM (R5), p24Gag production", "result": "> 1000", "unit": "nM"},
      {"measurement": "value in parentheses (fold change of IC50 vs wild-type ERS104pre)", "setting": "HIV-1 MDR/JSL (R5); PBMC, MDR/JSL (R5)", "result": "> 29"},
      {"measurement": "IC50", "setting": "HIV-1 MDR/JSL (R5); PBMC, MDR/JSL (R5), p24Gag production", "result": "> 1000", "unit": "nM"},
      {"measurement": "value in parentheses (fold change of IC50 vs wild-type ERS104pre)", "setting": "HIV-1 MDR/B", "result": "> 29"},
      {"measurement": "IC50", "setting": "HIV-1 MDR/B; [4]", "result": "> 1000", "unit": "nM"},
      {"measurement": "value in parentheses (fold change of IC50 vs wild-type ERS104pre)", "setting": "HIV-1 MDR/C (X4); PBMC, MDR/C (X4)", "result": "> 29"},
      {"measurement": "IC50", "setting": "HIV-1 MDR/C (X4); PBMC, MDR/C (X4), p24Gag production", "result": "> 1000", "unit": "nM"},
      {"measurement": "value in parentheses (fold change of IC50 vs wild-type ERS104pre)", "setting": "HIV-1 MDR/G (X4); PBMC, MDR/G (X4)", "result": "> 29"},
      {"measurement": "IC50", "setting": "HIV-1 MDR/G (X4); PBMC, MDR/G (X4), p24Gag production", "result": "> 1000", "unit": "nM"},
      {"measurement": "value in parentheses (fold change of IC50 vs wild-type ERS104pre)", "setting": "HIV-1 MDR/A (X4); PBMC, MDR/A (X4)", "result": "> 29"},
      {"measurement": "IC50", "setting": "HIV-1 MDR/A (X4); PBMC, MDR/A (X4), p24Gag production", "result": "> 1000", "unit": "nM"},
      {"measurement": "IC50", "setting": "[2]", "result": "> 1", "unit": "µM"}
    ]},
    {"smiles": "COc1ccc(S(=O)(=O)N(CC(C)C)C[C@@H](O)[C@H](Cc2ccccc2)NC(=O)OC2CC3OCCO[C@@H]3C2)cc1", "note": "(stereo partly drawn) [Inhibitor 103, (1′S,2′R)-{1′-Benzyl-2′-hydroxy-3′-[isobutyl(4-methoxybenzenesulfonyl)amino]propyl} carbamic acid (1β,2β,4β)-1,2-(ethylenedioxy)cyclopent-4-yl ester]", "values": [
      {"measurement": "IC50", "setting": "HIV-1-LAI; Human immunodeficiency virus 1, T-lymphoid, MT-2 human T-lymphoid cells exposed to HIV-1-LAI", "result": 0.17, "unit": "µM"},
      {"measurement": "IC50", "setting": "HIV-1-LAI; [3]", "result": 0.17, "unit": "µM"},
      {"measurement": "IC50", "setting": "HIV-1-LAI; MT-2 human T-lymphoid cells exposed to HIV-1LAI", "result": 0.21, "unit": "µM"}
    ]},
    {"smiles": "CC(C)(C)NC(=O)[C@@H]1C[C@@H]2CCCC[C@@H]2CN1C[C@@H](O)[C@H](Cc1ccccc1)NC(=O)[C@H](CC(N)=O)NC(=O)c1ccc2ccccc2n1", "note": "[SQV, saquinavir]", "values": [
      {"measurement": "IC50", "setting": "[1]; [5]", "result": 12, "unit": "nM"},
      {"measurement": "IC50", "setting": "HIV-1 MDR/MM (R5); [5]", "result": 190, "unit": "nM"},
      {"measurement": "IC50", "setting": "HIV-1 MDR/JSL (R5); [5]", "result": 330, "unit": "nM"},
      {"measurement": "IC50", "setting": "HIV-1 MDR/C (X4); [5]", "result": 36, "unit": "nM"},
      {"measurement": "IC50", "setting": "HIV-1 MDR/G (X4); [5]", "result": 29, "unit": "nM"},
      {"measurement": "IC50", "setting": "HIV-1 MDR/A (X4); [5]", "result": 81, "unit": "nM"}
    ]},
    {"smiles": "COc1ccc(S(=O)(=O)N(CC(C)C)C[C@@H](O)[C@H](Cc2ccccc2)NC(=O)OC2CC3OCOCO[C@@H]3C2)cc1", "note": "(stereo partly drawn) [Inhibitor 128, (1′S,2′R)-{1′-Benzyl-2′-hydroxy-3′-[isobutyl(4-methoxybenzenesulfonyl)amino]propyl} carbamic acid (5aα,7a,8aα)-tetrahydrocyclopenta[f]-1,3,5-trioxaepan-7-yl ester]", "values": [
      {"measurement": "Ki", "setting": "HIV-1 protease", "result": "0.0005 µM and 0.00051 µM"},
      {"measurement": "IC50", "setting": "HIV-1-LAI; [3]", "result": "0.38 ± 0.02", "unit": "µM"}
    ]},
    {"smiles": "COc1ccc(S(=O)(=O)N(CC(C)C)C[C@@H](O)[C@H](Cc2ccccc2)NC(=O)O[C@H]2CC3OCOCO[C@@H]3C2)cc1", "note": "(stereo partly drawn) [Inhibitor 127, (1S,2R)-{1′-Benzyl-2′-hydroxy-3′-[isobutyl(4-methoxybenzenesulfonyl)amino]propyl} carbamic acid (5aα,7β,8aα)-tetrahydrocyclopenta[f]-1,3,5-trioxaepan-7-yl ester]", "values": [
      {"measurement": "Ki", "setting": "HIV-1 protease", "result": "0.0054 ± 0.00022", "unit": "µM"},
      {"measurement": "IC50", "setting": "HIV-1-LAI; [3]", "result": "> 1", "unit": "µM"}
    ]}
  ]
}
